Results published in PubChem BioAssay AID686978 (National Center for Advancing Translational Sciences (NCATS), 2013).
About 64,000 (15%) of roughly 420,000 compounds were called active. The inconclusive results got no clear call from the source; some entries with a clear call stand among them for comparison. Calls follow the shape of the dose curve; as a rule, active = well fitted inhibition curve with a large enough effect; inconclusive = small, poorly fitted or top-dose-only effect; inactive = flat fitted curve, though single readings scatter. Potencies of inconclusive entries are left out as doubtful fits.
Potency is read from the fitted curve at half-maximal effect; tags tell the direction and shape of the fitted curve.

Assay: qHTS for Inhibitors of human tyrosyl-DNA phosphodiesterase 1 (TDP1): qHTS in cells in absence of CPT; also: nearly all actives have a fitted effect of over 55% in size
Settings: DT40 Tdp1-/- hTDP1 cells, no CPT, ATP luminescence, 48 h; series mostly up to 46.2 µM
Procedure, shortened: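 Camptothecin absent (DMSO only). Human TDP1-complemented DT40 knockout cells, 400 cells/well, 37 °C for minimum 48 hr; ATP measured via CellTiter-Glo, 30 min dark incubation, luminescence.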
With CCOc1cccc(-c2cc(NCCc3ccccn3)n3nccc3n2)c1 the Potency was inconclusive [inhibitor, single point]. In the case of O=C(Nc1cccc(S(=O)(=O)N2CCCC2)c1)c1ccc2ccccc2n1, the Potency is reported as active: 23.1 µM. For Clc1ccc(-c2nnc(-c3ccccc3)nc2-c2c[nH]c3ccccc23)cc1, the Potency was inconclusive [inhibitor, single point]. With O=C(Nc1ccc(F)cc1)c1oc2ccccc2c1NC(=O)C12CC3CC(CC(C3)C1)C2 the Potency was inconclusive [inhibitor, full curve]. In the case of Cc1cccc(OC(=O)CSc2nnc(CNC(=O)c3ccccc3)o2)c1C, the Potency is reported as “inactive”. With CC(C)c1ccc(CN2CCSCC2)cc1 the Potency was “inactive”. With CCCCNc1c(CC(C)C)nc2nc(C)cc(C)n12 the Potency was active: 23.1 µM. With COc1cccc(Cn2cc(/C=N/NC(=O)c3cc(O)cc(O)c3)c3ccccc32)c1 the Potency was inconclusive [inhibitor, single point]. In the case of Cc1ccc(NS(=O)(=O)c2ccc(CCC(=O)N3CCOCC3)cc2)cc1, the Potency is reported as inconclusive [inhibitor, partial curve, poor fit]. With O=C(Oc1ccc(N(Cc2cccs2)C2=NS(=O)(=O)c3ccccc32)cc1)c1ccco1 the Potency was inconclusive [inhibitor, single point]. In the case of CN(C)C(=O)N1CCC(C(=O)N2CCCC(C(=O)c3cccc4ccccc34)C2)CC1 (configuration not stated), the Potency is reported as inconclusive [inhibitor, partial curve]. With O=C1CC[C@@H](CN(Cc2ccccc2)Cc2cn[nH]c2-c2cc3ccccc3o2)N1 the Potency was active: 16.4 µM. With COC(=O)C1CCN(C(=O)CSc2nc3nc(C)cc(C)n3n2)CC1 the Potency was “inactive”. With COC(=O)c1cc(S(=O)(=O)NCc2cccc(Br)c2)c[nH]1 the Potency was “inactive”. In the case of CN(C(=O)c1cccc(NC(=O)C2CCN(C(=O)OC(C)(C)C)CC2)c1)C1CCCCC1, the Potency is reported as active: 13 µM. With O=c1c2ccc(Cl)cc2nc(-c2ccc([N+](=O)[O-])cc2)n1O the Potency was active: 8.2 µM. For CCCCCCCCCCCCCCCCCCN(CCCCCCCCCCCCCCCCCC)c1ccc(/C=C/c2ccnc3ccccc23)cc1, the Potency was “inactive”. For CCCCn1c(-c2csc3c2CCC(C)C3)n[nH]c1=S (configuration not stated), the Potency was inconclusive [inhibitor, partial curve]. In the case of C/C(=N\N=C\c1ccccc1)c1nnn(-c2nonc2N)c1C, the Potency is reported as “inactive”. With COc1cccc(NC(=O)CSC2=Nc3ccccc3C3=NC(CC(=O)NC4CCCCC4)C(=O)N23)c1 (configuration not stated) the Potency was inconclusive [inhibitor, single point]. In the case of CC1CCN(C(=O)Cn2ncc3c4ccccc4n(C)c3c2=O)CC1, the Potency is reported as “inactive”. For CCc1nnc(SCc2cc(C)ccc2C)c2cc3sc(C)cc3n12, the Potency was inconclusive [inhibitor, single point]. In the case of CSCCC(C(=O)Nc1c(C)cccc1C)N(C)CCc1ccccc1 (configuration not stated), the Potency is reported as active: 16.4 µM. For CC(C)(C)S(=O)(=O)N1C[C@@H]2C(=CC[C@H]3C(=O)N(c4ccccc4)C(=O)[C@@H]23)[C@@H]1CCO, the Potency was “inactive”. For CC(C)CCNC(=O)c1c[nH]c2ccc(S(=O)(=O)N3CCC4(CC3)OCCO4)cc2c1=O, the Potency was inconclusive [inhibitor, single point]. For Cc1ccc(F)cc1NC(=O)CCNC(=O)c1ccc([N+](=O)[O-])cc1, the Potency was inconclusive [inhibitor, partial curve]. For COc1ccc(C2CC(=O)c3cc(-c4nc(-c5ccc(Cl)cc5)c(C)s4)c(=O)[nH]c3C2)cc1 (configuration not stated), the Potency was active: 1.84 µM. For Cc1ccc2c(c1)-c1cc(C)nn1C(c1cc(Br)ccc1O)N2 (configuration not stated), the Potency was inconclusive [inhibitor, single point]. For Cc1cccc(NC(=O)CNC(=O)c2ccccc2Cl)n1, the Potency was “inactive”. In the case of CC(C)CSc1nc2c(c(=O)[nH]c(=O)n2C)n1CCc1ccccc1, the Potency is reported as inconclusive [inhibitor, full curve]. In the case of Cc1ccc(-n2c(SCc3cccc(F)c3)nc3[nH]ncc3c2=O)cc1C, the Potency is reported as active: 20.6 µM. With CN(C)Cc1ccccc1-c1ccc2ncnc(N3CCOCC3)c2c1 the Potency was active: 20.6 µM. For Cc1ccc(OC(C)C(=O)Nc2ccccc2C(=O)N2CCOCC2)cc1 (configuration not stated), the Potency was “inactive”. In the case of COc1ccc(OC)c(S(=O)(=O)NCC(=O)NC2CCCc3ccccc32)c1 (configuration not stated), the Potency is reported as “inactive”. For COc1ccc(-c2nnn(Cc3ccccc3)n2)cc1, the Potency was “inactive”. With O=C(Cc1c(F)cccc1Cl)NCCc1c[nH]c2ccccc12 the Potency was inconclusive [inhibitor, single point]. For COC(=O)c1ccc2c(=O)n(CCCCCC(=O)NCc3ccc(Cl)cc3)c(=O)[nH]c2c1, the Potency was inconclusive [inhibitor, single point]. With C/C(=N\NC(=O)c1ccc(Cn2cc([N+](=O)[O-])cn2)o1)c1cccc(NC(=O)c2cccnc2)c1 the Potency was inconclusive [inhibitor, single point]. With COc1cccc(Cn2c(=O)c(-c3ccc(F)cc3)nc3cncnc32)c1 the Potency was “inactive”. For CC1(C)Cc2c(cnn2-c2ccccc2)C(=O)/C1=N\NC(=O)c1ccccc1, the Potency was inconclusive [inhibitor, partial curve]. In the case of COc1cccc(CNCC(O)COc2ccc(C(=O)c3ccccc3)cc2)c1 (configuration not stated), the Potency is reported as “inactive”. With COc1ccc(CCc2ccc3cc(OC)ccc3n2)cc1 the Potency was inconclusive [inhibitor, single point]. For Cc1cccc(C(C)C)c1NC(=O)Cc1ccc(S(=O)(=O)N2CCOCC2)s1, the Potency was “inactive”. For Cc1ccccc1-c1ccc2ncnc(NC3CC3)c2c1, the Potency was inconclusive [inhibitor, single point]. In the case of O=S(=O)(Nc1nc2n(n1)C(c1ccc(F)cc1)C=C(c1ccccc1)N2)c1ccccc1 (configuration not stated), the Potency is reported as active: 20.6 µM. For COc1ccc(N(CC(=O)NCCC2=CCCCC2)S(C)(=O)=O)cc1OC, the Potency was inconclusive [inhibitor, partial curve, poor fit]. With O=C1c2ccccc2C(O)N1Cc1ccccc1Cl (configuration not stated) the Potency was “inactive”.
